Measured values: the supplement of paper PMC9588766
Structures can show the parent of a compound that is named as a salt. Over roughly 1,900 compounds, “cell viability of compound + 1 nM pemigatinib relative to pemigatinib-only (DMSO) wells” has its median near 0.95; the lowest 2% begin near 0.22. Some of the results follow.

Test system: PDC-DUC18828
Assay: cell viability of compound + 1 nM pemigatinib relative to pemigatinib-only (DMSO) wells (fraction); PDC-DUC18828 is a patient-derived cholangiocarcinoma cell line; higher = less growth inhibition
Settings: first compound 1 µM; pemigatinib concentration 1 nM; 72 h
Experimental: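 Selleck Bioactive library screen in the patient-derived FGFR2 fusion-positive ICC cell line PDC-DUC18828 (500 cells/well). Each compound was tested at 1 uM with 1 nM pemigatinib, in triplicate, for 72 h. Viability was read by CellTiter-Glo and normalised to plate DMSO controls. Value is the paper's averaged normalised viability.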

First: O=S(=O)(CC1CS1)c1ccc(Oc2ccccc2)cc1 (stereo not given) + CCN1C(=O)N(c2c(F)c(OC)cc(OC)c2F)Cc2cnc3[nH]c(CN4CCOCC4)cc3c21 [pemigatinib]
Second: NCCc1ccc(S(=O)(=O)F)cc1 + CCN1C(=O)N(c2c(F)c(OC)cc(OC)c2F)Cc2cnc3[nH]c(CN4CCOCC4)cc3c21 [pemigatinib]
The cell viability of the first is lower: 0.996 for the first, 1 for the second.

First: O=c1[nH]c2ccccc2n1CCCN1CCC(n2c(=O)[nH]c3cc(Cl)ccc32)CC1 [Domperidone] + CCN1C(=O)N(c2c(F)c(OC)cc(OC)c2F)Cc2cnc3[nH]c(CN4CCOCC4)cc3c21 [pemigatinib]
Second: CN1c2ccccc2C(NCCCCCCC(=O)O)c2ccc(Cl)cc2S1(=O)=O (stereo not given) [Tianeptine sodium] + CCN1C(=O)N(c2c(F)c(OC)cc(OC)c2F)Cc2cnc3[nH]c(CN4CCOCC4)cc3c21 [pemigatinib]
The cell viability of the first is lower: 0.936 for the first, 0.986 for the second.

Compared with `C/C(=C\c1csc(C)n1)[C@@H]1C[C@@H]2O[C@]2(C)CCC[C@H](C)[C@H](O)[C@@H](C)C(=O)C(C)(C)[C@@H](O)CC(=O)O1` [Epothilone B (EPO906, Patupilone)] + CCN1C(=O)N(c2c(F)c(OC)cc(OC)c2F)Cc2cnc3[nH]c(CN4CCOCC4)cc3c21 [pemigatinib], `C[C@H]1CCC/C=C/[C@@H]2C[C@H](O)C[C@H]2[C@H](O)/C=C/C(=O)O1` [Brefeldin A] + CCN1C(=O)N(c2c(F)c(OC)cc(OC)c2F)Cc2cnc3[nH]c(CN4CCOCC4)cc3c21 [pemigatinib] is lower in cell viability: 0.211 for the first, 0.016 for the second.

Going from `C=CC[C@]1(O)CC[C@H]2[C@@H]3CCC4=CC(=O)CCC4=C3C=C[C@@]21C` [Altrenogest] + CCN1C(=O)N(c2c(F)c(OC)cc(OC)c2F)Cc2cnc3[nH]c(CN4CCOCC4)cc3c21 [pemigatinib] to `COC[C@H]1OC(=O)c2coc3c2[C@@]1(C)C1=C(C3=O)[C@@H]2CCC(=O)[C@@]2(C)C[C@H]1OC(C)=O` [Wortmannin] + CCN1C(=O)N(c2c(F)c(OC)cc(OC)c2F)Cc2cnc3[nH]c(CN4CCOCC4)cc3c21 [pemigatinib], the cell viability falls from 0.926 to 0.719.

First: C=C[C@H]1CN2CC[C@H]1C[C@H]2[C@H](O)c1ccnc2ccccc12 [Cinchonidine] + CCN1C(=O)N(c2c(F)c(OC)cc(OC)c2F)Cc2cnc3[nH]c(CN4CCOCC4)cc3c21 [pemigatinib]
Second: CN1[C@@H]2CC[C@H]1C[C@@H](OC(=O)[C@H](CO)c1ccccc1)C2 [Hyoscyamine] + CCN1C(=O)N(c2c(F)c(OC)cc(OC)c2F)Cc2cnc3[nH]c(CN4CCOCC4)cc3c21 [pemigatinib]
The cell viability of the first is higher: 1.03 for the first, 0.979 for the second.

Compared with `Cc1cccc(C(C)c2c[nH]cn2)c1C` (stereo not given) [Medetomidine HCl] + CCN1C(=O)N(c2c(F)c(OC)cc(OC)c2F)Cc2cnc3[nH]c(CN4CCOCC4)cc3c21 [pemigatinib], `Cc1cc(O)ccc1Cl` [Chlorocresol] + CCN1C(=O)N(c2c(F)c(OC)cc(OC)c2F)Cc2cnc3[nH]c(CN4CCOCC4)cc3c21 [pemigatinib] is higher in cell viability: 0.953 for the first, 0.996 for the second.

Going from `Fc1cc(F)c2c(c1)[C@H]1C=CC[C@H]1C(c1cccnc1)N2` (stereo not given in full) [Golgicide A] + CCN1C(=O)N(c2c(F)c(OC)cc(OC)c2F)Cc2cnc3[nH]c(CN4CCOCC4)cc3c21 [pemigatinib] to `c1cc2c(cc1[C@H]1OC[C@H]3[C@@H]1CO[C@@H]3c1ccc3c(c1)OCO3)OCO2` [Sesamin] + CCN1C(=O)N(c2c(F)c(OC)cc(OC)c2F)Cc2cnc3[nH]c(CN4CCOCC4)cc3c21 [pemigatinib], the cell viability falls from 0.953 to 0.925.

First: Nc1nc(N)nc(NC2CC2)n1 [Cyromazine] + CCN1C(=O)N(c2c(F)c(OC)cc(OC)c2F)Cc2cnc3[nH]c(CN4CCOCC4)cc3c21 [pemigatinib]
Second: CN1CCC(c2c[nH]c3ccc(O)cc23)CC1 + CCN1C(=O)N(c2c(F)c(OC)cc(OC)c2F)Cc2cnc3[nH]c(CN4CCOCC4)cc3c21 [pemigatinib]
The cell viability of the first is higher: 0.99 for the first, 0.932 for the second.

First: COc1cc(-n2c(=S)[nH]c3ccccc3c2=O)c(Cl)cc1Cl [Mdivi-1] + CCN1C(=O)N(c2c(F)c(OC)cc(OC)c2F)Cc2cnc3[nH]c(CN4CCOCC4)cc3c21 [pemigatinib]
Second: O=C(O)CNC(=O)c1c(O)c2ccccc2n(Cc2ccccc2)c1=O + CCN1C(=O)N(c2c(F)c(OC)cc(OC)c2F)Cc2cnc3[nH]c(CN4CCOCC4)cc3c21 [pemigatinib]
The cell viability of the first is higher: 0.952 for the first, 0.876 for the second.

First: CCCN1C[C@H](CSC)C[C@@H]2c3cccc4[nH]cc(c34)C[C@H]21 [Pergolide mesylate] + CCN1C(=O)N(c2c(F)c(OC)cc(OC)c2F)Cc2cnc3[nH]c(CN4CCOCC4)cc3c21 [pemigatinib]
Second: C1=C2CCCN[C@H]2[C@@H]2C[C@H]1[C@H]1CCCCN1C2 [Aloperine] + CCN1C(=O)N(c2c(F)c(OC)cc(OC)c2F)Cc2cnc3[nH]c(CN4CCOCC4)cc3c21 [pemigatinib]
The cell viability of the first is lower: 0.901 for the first, 0.913 for the second.

First: CC(=O)Nc1ccc(Cc2ccc(NC(C)=O)cc2)cc1 + CCN1C(=O)N(c2c(F)c(OC)cc(OC)c2F)Cc2cnc3[nH]c(CN4CCOCC4)cc3c21 [pemigatinib]
Second: CCNC(=O)C[C@@H]1N=C(c2ccc(Cl)cc2)c2cc(OC)ccc2-n2c(C)nnc21 + CCN1C(=O)N(c2c(F)c(OC)cc(OC)c2F)Cc2cnc3[nH]c(CN4CCOCC4)cc3c21 [pemigatinib]
The cell viability of the first is higher: 1.04 for the first, 0.925 for the second.

Compared with `C[N+](C)(C)CCCCCCCCCC[N+](C)(C)C` [Decamethonium Bromide] + CCN1C(=O)N(c2c(F)c(OC)cc(OC)c2F)Cc2cnc3[nH]c(CN4CCOCC4)cc3c21 [pemigatinib], `COc1cc([C@@H]2c3cc4c(cc3[C@H](O)[C@H]3COC(=O)[C@@H]23)OCO4)cc(OC)c1OC` [Picropodophyllin (PPP)] + CCN1C(=O)N(c2c(F)c(OC)cc(OC)c2F)Cc2cnc3[nH]c(CN4CCOCC4)cc3c21 [pemigatinib] is lower in cell viability: 0.94 for the first, 0.42 for the second.

`NC(=O)CN1CC(O)CC1=O` (stereo not given) [Oxiracetam] + CCN1C(=O)N(c2c(F)c(OC)cc(OC)c2F)Cc2cnc3[nH]c(CN4CCOCC4)cc3c21 [pemigatinib] showed a cell viability of 0.995.
